Reference: PubChem BioAssay AID1347417 (National Center for Advancing Translational Sciences (NCATS), 2020)
Among all 120,000 compounds or so, about 5,300 (4.4%) were called active. Inconclusive means that the source gave no clear call. Such entries were picked first, then a sample of the others. The call rests on the fitted dose curve; in most records, active means well fitted inhibition curve with a large enough effect; inconclusive means small, poorly fitted or top-dose-only effect; inactive means no such curve, though single readings can be large or run the other way. Where the call is inconclusive, the potency comes from a doubtful curve fit.

Assay: qHTS Primary assay for Inhibitors of Plasmodium falciparum Dd2 growth in vitro; further: nearly all actives have a fitted effect of over 65% in size;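 on activity, negative = inhibition: plate controls were DMSO vehicle for no effect and reference drug for full effect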
Conditions: P. falciparum Dd2 growth, SYBR Green, 72 h; activity, negative = inhibition: at 28.9 µM (top of the series) unless noted; series mostly up to 28.9 µM
Summary of the method: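 Readout: SYBR Green fluorescence, 485 nm excitation, 535 nm emission, after ~16 h lysis at 37C. Before that, Dd2-infected red cells (2.5% hematocrit) grew 72 h with compound, 29 uM top final concentration.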
Potency means the concentration at half of the fitted maximal effect; tags describe the fitted curve by direction and shape.

SMILES | activity, negative = inhibition | Potency | outcome
Cc1nn(CCC#N)c(C)c1[C@@H]1C=C[C@@H](NS(=O)(=O)c2cccs2)C1 | inactive: -18.5% [at 44.1 µM] |  | 
O=C(NCCc1cnn(-c2ccccc2)c1)C1NCCc2[nH]cnc21 (stereo not drawn) | inactive: -2.65% |  | 
CCOc1ccc(NC(=O)CSc2nnc(CNC(=O)C34CC5CC(CC(C5)C3)C4)n2CC)cc1 |  | inconclusive: 17.8 µM [inhibitor, single point] | 
Cc1cc(Nc2cccc(C(F)(F)F)c2)nc2ccc(NC(=O)c3cccc(Cl)c3)cc12 |  | inconclusive: 1 µM [inhibitor, partial curve, poor fit] | 
O=C(NCCCN1CCOCC1)c1ccc2c(c1)N(Cc1cccc(Cl)c1)C(=O)c1ccccc1S2 |  | inconclusive: 10 µM [inhibitor, single point] | 
COC[C@@H]1CN(Cc2ccncc2F)C[C@H]1c1nc(C)no1 | inactive: 11.2% |  | 
O=C(Cn1cc(S(=O)(=O)c2ccccc2)c(=O)c2cc(Cl)ccc21)Nc1ccc2c(c1)OCO2 |  | active: 8.91 µM | 
CCOc1cc(C(=O)NCC(c2ccc(N(C)C)cc2)N2CCOCC2)cc(OCC)c1OCC (stereo not drawn) |  | inconclusive: 10 µM [inhibitor, single point] | 
CCCS(=O)(=O)N1CCC(N2CC(OCCOC)C23CCCCC3)CC1 (stereo not drawn) |  | inconclusive: 8.91 µM [inhibitor, single point] | 
CN(C)c1nc2c(c(=O)[nH]1)CCN(Cc1ccc(F)cc1)CC2 | inactive: 52.5% [at 5.79 µM] |  | 
CC(C)CC(=O)NC1CCN(c2cnn(Cc3ccccc3)c(=O)c2)CC1 |  | inconclusive: 4.47 µM [inhibitor, partial curve] | 
Cc1cccc(NC(=O)Cn2c(C)cc3nc4n(c(=O)c32)CCCCC4)c1 |  |  | inactive
O=C(CSc1nc(-c2ccc(F)cc2)[nH]c1-c1ccc(F)cc1)Nc1ccc2c(c1)OCO2 |  | inconclusive: 12.6 µM [inhibitor, partial curve, poor fit] | 
COc1cc(NC(=O)CSc2ccc(-c3ccccn3)nn2)cc(OC)c1 |  | inconclusive: 17.8 µM [inhibitor, single point] | 
Cc1cc(C)c(S(=O)(=O)NCC(c2ccc(N(C)C)cc2)N2CCOCC2)c(C)c1 (stereo not drawn) |  | inconclusive: 10 µM [inhibitor, partial curve, poor fit] | 
Cc1ccc2oc(=O)n(CCCOc3ccccc3Cl)c2c1 |  | inconclusive: 20 µM [inhibitor, single point] | 
CCC(C)NC(=O)C1COC2(CCC(C)CC2)N1C(=O)c1cccc(F)c1 (stereo not drawn) |  | inconclusive: 0.199 µM [inhibitor, full curve] | 
CCOC(=O)c1cnc2c(C)c(Cl)ccc2c1Nc1ccc(N2CCOCC2)cc1 |  | inconclusive: 15.8 µM [inhibitor, single point] | 
Cc1ccccc1Nc1c(-c2cccnc2)nc2ccc(Cl)cn12 |  | inconclusive: 17.8 µM [inhibitor, single point] | 
CCc1nn2c(=O)c(S(=O)(=O)Nc3ccc(Cl)cc3)c(C)nc2s1 |  | inconclusive: 22.4 µM [inhibitor, partial curve, poor fit] | 
Cc1cccc(C(=O)N2CCCCCNC(=O)[C@H]3C[C@H](C(=O)N4CCc5ccccc5C4)C[C@H]32)c1 |  | active: 8.91 µM | 

SMILES | activity, negative = inhibition | Potency | outcome
Cc1ccc(-c2cn3c(n2)sc2cc(C(=O)NCCCc4ccccc4)ccc23)c(C)c1 |  | active: 5.01 µM | 
CCCCN(CCCNC(=O)c1cc(Nc2ccc(OC)c(OC)c2)nc2ccccc12)c1ccccc1 |  | inconclusive: 17.8 µM [inhibitor, single point] | 
COc1ccc2[nH]cc(CCNC(=O)c3ccc(N4CC5CC(C4)[C@H]4CCCC(=O)N4C5)nc3)c2c1 (stereo partly drawn) |  | inconclusive: 3.98 µM [inhibitor, partial curve, poor fit] | 
CCOc1ccc(CNCc2c(C(=O)O)c(C)n(Cc3c(F)cccc3Cl)c2C)cc1OC |  | inconclusive: 11.2 µM [inhibitor, single point] | 
CC(NC(=O)c1ccc(N2CC(=O)NC2=O)cc1)c1cn2ncsc2n1 (stereo not drawn) |  | inconclusive: 10 µM [inhibitor, single point] | 
C[C@]1(CO)[C@H]2Cc3sc(NC(=O)c4ccc(F)cc4)nc3[C@@H](CC(=O)NCc3ccccc3)[C@]2(C)CC[C@H]1O |  | inconclusive: 2.82 µM [inhibitor, partial curve, poor fit] | 
Cc1ccc(C(=O)N2CCC3(CC2)CC(N(Cc2ccc(F)cc2)C2CC2)CCO3)cn1 (stereo not drawn) |  | inconclusive: 10 µM [inhibitor, partial curve, poor fit] | 
Cc1nnc(N2CCC(C(=O)NCCC(C)C)CC2)c2nn(-c3ccc(Cl)cc3)c(C)c12 |  | inconclusive: 17.8 µM [inhibitor, single point] | 
CCC(C(=O)N1CCN(c2ccccc2)CC1)n1c(C)c2cnn(-c3ccccc3)c(=O)c2c1C (stereo not drawn) |  | active: 11.2 µM | 
CCOCC(=O)N1CCCCCCNC(=O)[C@@H]2C[C@@H](c3nc(-c4cccnc4)no3)C[C@@H]21 | inactive: -4.34% |  | 
O=C(Cc1ccc(N2CCNC2=O)cc1)N1CCC2(CC1)[C@H](O)C[C@@H]2O | inactive: -1.87% |  | 
C=C(C)CSc1nc(-c2ccccc2)cc(-c2ccc(OC)cc2)c1C#N |  | inconclusive: 12.6 µM [inhibitor, single point] | 
COc1ccc(CNC(=O)CCc2c(C)c3cc4c(C)c(C)oc4cc3oc2=O)cc1OC | inactive: 4.64% |  | 
CCc1noc(-c2ccn3c(CNC(=O)c4cccnc4)nnc3c2)n1 |  | inconclusive: 7.94 µM [inhibitor, single point] | 
CCS(=O)(=O)N1CCC(N2CCCC(C(=O)NCCc3ccccc3)C2)CC1 (stereo not drawn) |  | inconclusive: 14.1 µM [inhibitor, single point] | 
CC(C)c1ccc(OCC(=O)N(Cc2cccs2)C2CCS(=O)(=O)C2)cc1 (stereo not drawn) |  | inconclusive: 5.62 µM [inhibitor, partial curve, poor fit] | 
CCc1ccc(NC(=O)CN2C(=O)C3(SCC(=O)N3c3ccc(F)c(F)c3)c3ccccc32)cc1 (stereo not drawn) |  | inconclusive: 17.8 µM [inhibitor, single point] | 
COc1ccc(C)cc1Nc1cc(C)nc(C)n1 | inactive: 3.51% |  | 
COc1cc(NC(=O)c2cc3n(n2)CC(c2ccc(Br)cc2)OC3)cc(OC)c1OC (stereo not drawn) |  |  | inactive
CC(C)Oc1ccc(C(=O)Nc2c(C(=O)Nc3cccc(F)c3)oc3ccccc23)cc1 |  | inconclusive: 11.2 µM [inhibitor, single point] | 
CC1=C(C(=O)N(C)C)C(c2ccc(Cl)cc2)N2C(CC(=O)NCC3CCCO3)=CSC2=N1 (stereo not drawn) |  | inconclusive: 10 µM [inhibitor, single point] | 

SMILES | activity, negative = inhibition | Potency | outcome
O=C(CCn1ccc2cc(S(=O)(=O)N3CCCC3)ccc21)NCc1ccccc1Br |  | inconclusive: 17.8 µM [inhibitor, single point] | 
Cc1cc(C)c2nonc2c1S(=O)(=O)N1C[C@@H](N(C)C)[C@H](C(C)C)C1 |  | active: 11.2 µM | 
COc1ccc(-c2cc(N3CCC(NC(=O)Cc4ccsc4)CC3)n[nH]2)cc1 |  | inconclusive: 2.51 µM [inhibitor, partial curve] | 
CN1Cc2ccccc2-n2ccnc2C12CCN(C(=O)c1cccc(C(F)(F)F)c1)CC2 |  | inconclusive: 0.708 µM [inhibitor, partial curve] | 
CC(=O)Nc1cccc(-n2cc3c(c2-c2ccccc2Cl)c(=O)n(C)c(=O)n3C)c1 |  | inconclusive: 10 µM [inhibitor, single point] | 
COCCN1C(=O)[C@@H]2C[C@@H](CN2C(=O)Cc2ccccc2)Oc2ccccc21 | inactive: 14.7% [at 44.1 µM] |  | 
COc1cccc(-c2cn3c(n2)N(C(=O)Cn2ccnc2C)CCC3)c1 |  | inconclusive: 7.94 µM [inhibitor, partial curve, poor fit] | 
CCC(C)(C)NC(=O)c1cccc2c1CCN2C(=O)Nc1ccc(C)cc1 |  | inconclusive: 3.98 µM [inhibitor, single point] | 
COc1ccc(-c2cc3c(=O)n(CCNC(=O)c4ccccn4)ccn3n2)cc1 |  | inconclusive: 3.98 µM [inhibitor, partial curve, poor fit] | 
CCCC(=O)Nc1ccc(C(=O)N2CCc3nc(C)n(C)c(=O)c3CC2)cc1 | inactive: 4.23% |  | 
NC(=O)c1cc[nH]c1C1CCCN(C(=O)c2ccc3ccccc3n2)C1 (stereo not drawn) | inactive: -7.17% |  | 
CN(C)C(C(=O)N1CCN(c2ccc(C#N)cc2)CC1)c1ccccc1F (stereo not drawn) |  | inconclusive: 20 µM [inhibitor, single point] | 
C=C[C@H]1CN2CC[C@H]1C[C@@H]2CNCc1ccc(C(F)(F)F)cc1 |  | active: 2.24 µM | 
Cn1c(=O)c2sccc2n2c(CCC(=O)NCc3ccc(Cl)cc3)nnc12 |  | inconclusive: 11.2 µM [inhibitor, partial curve, poor fit] | 
Cc1cccc(NC(=O)Cn2ccn3nc(-c4ccccc4)c(CO)c3c2=O)c1C |  |  | inactive
CCOC(=O)c1c(Nc2ccc(OC)cc2)nnc(-c2ccccc2)c1-c1ccccc1 |  | inconclusive: 17.8 µM [inhibitor, single point] | 
Cc1ccc(CC2CCOC3(CCN(C(=O)c4cccc(C#N)c4)CC3)C2)cc1 (stereo not drawn) |  |  | inactive
CN(Cc1nc(-c2ccncc2)no1)C1CCC2(CCNCC2)CC1 | inactive: 3.6% |  | 
COCc1cc(C[C@@H]2CC[C@H](O)[C@@H](CN(C(=O)Nc3cccc(OC)c3)C(=O)Nc3cccc(OC)c3)O2)no1 |  | inconclusive: 7.94 µM [inhibitor, partial curve, poor fit] | 
Cc1ccccc1NC(=O)Cn1c(=O)n(Cc2ccc3c(c2)OCO3)c(=O)c2ccccc21 |  | inconclusive: 12.6 µM [inhibitor, single point] | 
O=C(Nc1ccc2n(c1=O)C[C@H]1C[C@@H]2CN(C(=O)COc2ccccc2)C1)c1cccs1 |  | inconclusive: 17.8 µM [inhibitor, single point] | 
